Reference: publication PMC6919601, “Identification of Plasmodium dipeptidyl aminopeptidase allosteric inhibitors by high throughput screening” (PLoS ONE, 2019)
Screen size: about 110,000 compounds; about 230 (0.21%) showed an effect of 50% or more. The list shows a part of the results.

molecular target: DPAP1 (Plasmodium falciparum, UniProt Q8IIJ9); test: primary screen, percent inhibition; read by cleavage of a fluorogenic dipeptide substrate; higher = more effect of the substance; set-up: species or system P. falciparum D10 trophozoite lysates; single well
Sequence (Q8IIJ9 whole entry, looked up): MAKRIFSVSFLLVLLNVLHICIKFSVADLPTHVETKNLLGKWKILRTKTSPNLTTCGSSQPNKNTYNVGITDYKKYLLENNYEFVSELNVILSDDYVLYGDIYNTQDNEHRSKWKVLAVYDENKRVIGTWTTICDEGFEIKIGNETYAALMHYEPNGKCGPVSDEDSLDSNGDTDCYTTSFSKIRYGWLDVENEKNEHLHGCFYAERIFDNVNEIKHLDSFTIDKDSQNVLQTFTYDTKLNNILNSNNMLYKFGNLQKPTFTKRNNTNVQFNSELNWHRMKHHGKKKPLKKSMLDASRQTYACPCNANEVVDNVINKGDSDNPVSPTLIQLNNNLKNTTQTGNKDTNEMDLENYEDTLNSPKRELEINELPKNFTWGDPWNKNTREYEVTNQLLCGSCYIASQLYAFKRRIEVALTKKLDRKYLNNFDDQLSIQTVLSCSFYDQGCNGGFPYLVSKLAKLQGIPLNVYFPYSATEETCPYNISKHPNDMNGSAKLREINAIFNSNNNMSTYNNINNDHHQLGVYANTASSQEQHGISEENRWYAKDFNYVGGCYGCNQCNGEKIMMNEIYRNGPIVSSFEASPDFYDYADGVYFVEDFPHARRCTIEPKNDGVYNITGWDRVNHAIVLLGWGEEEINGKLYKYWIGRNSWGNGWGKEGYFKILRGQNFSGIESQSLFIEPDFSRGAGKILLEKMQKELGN
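Further: 30 min substrate incubation versus DMSO and 10 µM JCP410 controls.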

Row | SMILES | % Inhibition @ 10 uM
1 | Cc1ccc(-c2cc(C(=O)N(C(C)C)C(C)C)c3ccccc3n2)o1 | 3.86%
2 | COc1ccc(NC(=O)c2ccc(OC(F)F)cc2)cc1Cl | 4.03%
3 | Cc1cccc(Oc2nc3c(C)cccn3c(=O)c2/C=C(\C#N)C(=O)NCCCOC(C)C)c1C | -5.1%
4 | Clc1ccc(N2CCN(Cc3ccc(Br)o3)CC2)cc1 | -5.41%
5 | Fc1ccc(-c2csc3ncnc(N4CCN(CCOc5ccccc5)CC4)c23)cc1 | 0.408%
6 | COc1ccc(C2Nc3ccccc3N=C3CC(c4ccco4)CC(O)=C32)cc1 (centres unmarked) | 2.46%
7 | N#CC1=C(O)Oc2ccc(N)cc2C1c1ccccc1 (centres unmarked) | 2.45%
8 | COC(=O)c1ccc2nc(Nc3nc4ccc(F)cc4s3)sc2c1 | -3.09%
9 | CC(Nc1nn2nnnc2c2ccccc12)c1ccccc1 (centres unmarked) | -0.739%
10 | COc1ccc(CNCc2ccc(C)cc2)cc1OC | -11.9%
11 | Cc1cc(C)c(OCC(O)CN2CCN(Cc3ccc4c(c3)OCO4)CC2)c(C)c1 (centres unmarked) | -7.09%
12 | CSc1ccc(C2C(C#N)=C(N)Oc3cc(N(C)C)ccc32)cc1 (centres unmarked) | -2.21%
13 | COc1cc(C(=O)N(CCCN(C)C)c2nc3ccc(C)cc3s2)cc(OC)c1OC | 7.44%
14 | Cc1ccc(C(=O)N/C(=C\c2ccco2)C(=O)N2CCN(c3ccccc3)CC2)cc1C | -2.88%
15 | CC1C(C#N)=C(SCc2ccccc2)N=C2CC(C)(C)CC(O)=C21 (centres unmarked) | 55.4%
16 | O=C(CS(=O)(=O)Cc1ccccc1)Nc1nc2ccccc2s1 | -2.83%
17 | O=C(O)[C@H]1CCCC[C@H]1C(=O)Nc1ccc(S(=O)(=O)N2CCCC2)cc1 | 3.92%
18 | O=C(Nc1nc(-c2ccc(Cl)cc2Cl)cs1)c1cccnc1 | 2.03%
19 | CCCn1c2ccccc2n2c(C(=O)CC)c(-c3ccccc3)nc12 | -6.88%
20 | OCCN1CCN(Cc2ccccc2C(F)(F)F)CC1 | 1.83%
21 | Cn1c(-c2ccc(F)cc2)c[n+]2cc(Cl)ccc12 | 1.02%
22 | CCOC(=O)Nc1ccc(S(=O)(=O)Nc2onc(C)c2C)cc1 | -3.37%
23 | CC(=O)n1c2ccccc2c2[nH]c3c(c21)CCCC3 | 1.24%
24 | O=C1C2C3C=CC(C3)C2C(=O)N1O (centres unmarked) | -1.4%
25 | COc1ccc(N(CC(=O)NC2CCCC2)S(=O)(=O)c2ccc(NC(C)=O)cc2)cc1 | 2.78%

Row | SMILES | % Inhibition @ 10 uM
26 | O=C(C1CCN(S(=O)(=O)c2ccc3nc(O)ccc3c2)CC1)N1CCCCCC1 | -5.03%
27 | COc1ccc(NC(=O)Nc2ccc3c(c2)C(=O)OC3)cc1 | -1.86%
28 | Cc1[nH]cnc1CN1CCN(c2ccc([N+](=O)[O-])cc2)CC1 | -0.132%
29 | Cc1sc2ncnc(N3CCN(c4ccccc4F)CC3)c2c1C | -0.941%
30 | COCCNC(=O)c1ccc(CN2CC(=O)N3CCCCC3C2=O)cc1 (centres unmarked) | 4.19%
31 | CCN(CC)C(=O)/C(=C/c1ccccc1)NC(=O)c1ccc(Br)o1 | 0.777%
32 | CCS(=O)(=O)c1nc(S(=O)(=O)c2ccc(Cl)cc2)c(N2CC(C)CC(C)C2)s1 (centres unmarked) | 2.76%
33 | COCCCNC(=O)Nc1cnc2ccccc2c1O | -1.07%
34 | CCCNC(=O)C(NS(=O)(=O)c1cccc2nsnc12)c1ccccc1 (centres unmarked) | -3.23%
35 | COc1ccc(S(=O)(=O)c2c(SC)nn(Cc3ccc(C)cc3)c2N(C(C)=O)C(C)=O)cc1 | -4.58%
36 | COC(=O)c1ccsc1NC(=O)CN1CCN(Cc2ccc3c(c2)OCO3)CC1 | 0.895%
37 | CC(NC(=O)c1cc(S(=O)(=O)N2CCCCC2)c[nH]1)c1ccc2c(c1)OCCO2 (centres unmarked) | 3.95%
38 | Cc1oc(-c2ccc(Cl)cc2)nc1CS(=O)CC(=O)NC1CCCCCC1 (centres unmarked) | 2.37%
39 | Oc1c2nc3ccccc3c-2ncn1CCc1ccc(Cl)cc1 | 1.64%
40 | CC1=C(CCN(CCO)CCO)C(C)(C)CCC1 | 4.55%
41 | CCOc1ccc(-c2cc(NC(=O)c3sc4nc5n(c(=O)c4c3C)CCCCC5)on2)cc1 | -4.42%
42 | O=C(Nc1cccc(Cl)c1)c1scc2c1OCCO2 | 3.8%
43 | O=C(NCc1ccccc1)Nc1nnc(N2CCCCC2)s1 | -4.68%
44 | Cc1ccccc1CNC(=O)Cn1ccc2cc(S(=O)(=O)N3CCC(C)CC3)ccc21 | 3.47%
45 | CCOC(=O)N1CCC(NC(=O)c2ccc(CS(=O)c3ccc(Cl)cc3)o2)CC1 (centres unmarked) | 0.458%
46 | COc1ccc(C)cc1-n1nnc(-c2nc(-c3ccccc3F)no2)c1N | 4.48%
47 | CC(C)(C)Nc1nc(Nc2cccc([N+](=O)[O-])c2)nc(NC(C)(C)C)n1 | 2.4%
48 | O=C(CCCS(=O)(=O)c1nc(-c2cccs2)cc(C(F)(F)F)n1)NC1CCCCC1 | 23.4%
49 | N#Cc1nn(-c2ccccc2)nc1N1CCCCC1 | -1.59%
50 | CC1=NOC(=O)/C1=C/c1ccccc1OCc1ccccc1Cl | -2.14%
